Broadly, the Ki is the dissociation constant of the complex between target and ligand, obtained from inhibition or displacement.

In patent US7423058B2, “Inhibitors of hepatitis C virus NS3 protease” (Schering Corporation, priority 2004, dated 2008) one finds Ki data, which are given here for 45 compounds.

This assay has as its target Recombinant heterodimeric HCV NS3/NS4A protease (strain 1a) (Hepatitis C virus genotype 1a, UniProt P27958). As to the kind of experiment: Spectrophotometric assay for HCV protease inhibitory activity (chromogenic ester substrates). In kind it is biochemical. Particulars: Table 1: Ketones; read-out: Ki* Range.
`CCCNC(=O)C(=O)C(CCC(F)(F)F)NC(=O)[C@@H]1[C@@H]2[C@H](CN1C(=O)[C@@H](NC(=O)N[C@H](C(=O)C1CC1)C(C)C)C1CCCCC1)C2(C)C` (stereo partly drawn) [compound 4155]: the Ki was under 75 nM.

For the compound `CNC(=O)C(=O)C(CC1CC1)NC(=O)[C@@H]1[C@@H]2[C@H](CN1C(=O)[C@@H](NC(=O)N[C@H](C(=O)C1CC1)C(C)C)C(C)(C)C)C2(C)C` (stereo partly drawn) [compound 4156], the Ki is under 75 nM. To `CNC(=O)C(=O)C(CC1CC1)NC(=O)[C@@H]1[C@@H]2[C@H](CN1C(=O)[C@@H](NC(=O)N[C@H](C(=O)c1ccc(N(C)C)cc1)C(C)C)C(C)(C)C)C2(C)C` (stereo partly drawn) [compound 4157] belongs under 75 nM; to `C=CCNC(=O)C(=O)C(CCC)NC(=O)[C@@H]1[C@@H]2[C@H](CN1C(=O)[C@@H](NC(=O)N[C@H](C(=O)c1nccs1)C1CCCCC1)C(C)(C)C)C2(C)C` (stereo partly drawn) [compound 4158], under 75 nM; to `CC(C)[C@H](NC(=O)N[C@H](C(=O)N1C[C@H]2[C@@H]([C@H]1C(=O)NC(CC1CC1)C(=O)C(N)=O)C2(C)C)C(C)(C)C)C(=O)c1ccc(Oc2ccccc2)cc1` (stereo partly drawn) [compound 4160], under 75 nM.

As to `CCCNC(=O)C(=O)C(CCC)NC(=O)[C@@H]1[C@@H]2[C@H](CN1C(=O)[C@@H](NC(=O)N[C@H](C(=O)C1CC1)C1CCCCC1)C(C)(C)C)C2(C)C` (stereo partly drawn) [compound 4161], the Ki was under 75 nM. The result for `CNC(=O)C(=O)C(CCC(F)(F)F)NC(=O)[C@@H]1[C@@H]2[C@H](CN1C(=O)[C@@H](NC(=O)N[C@H](C(=O)C(C)C)C(C)C)C(C)(C)C)C2(C)C` (stereo partly drawn) [compound 4162] reads under 75 nM; that for `CC(C)[C@H](OC(=O)N[C@H](C(=O)N1C[C@H]2[C@@H]([C@H]1C(=O)NC(CC1CC1)C(=O)C(N)=O)C2(C)C)C1CCCCC1)C(=O)c1ccccc1` (stereo partly drawn) [compound 4163], under 75 nM; that for `C=C(F)CNC(=O)C(=O)C(CCC)NC(=O)[C@@H]1[C@@H]2[C@H](CN1C(=O)[C@@H](NC(=O)N[C@H](C(=O)C1CC1)C1CCCCC1)C(C)(C)C)C2(C)C` (stereo partly drawn) [compound 4164], under 75 nM. Regarding `CC(C)[C@H](OC(=O)N[C@H](C(=O)N1C[C@H]2[C@@H]([C@H]1C(=O)NC(CC1CC1)C(=O)C(N)=O)C2(C)C)C1(C(F)(F)F)CC1)C(=O)c1ccccc1` (stereo partly drawn) [compound 4165], the inhibition constant (Ki) was under 75 nM. For `CC(C)(C)[C@H](NC(=O)N[C@H]1CCCCC1=O)C(=O)N1C[C@H]2[C@@H]([C@H]1C(=O)NC(CC1CC1)C(=O)C(N)=O)C2(C)C` (stereo partly drawn) [compound 4166], the Ki was under 75 nM. For the compound `CCNC(=O)C(=O)C(CC1CC1)NC(=O)[C@@H]1[C@@H]2[C@H](CN1C(=O)[C@@H](NC(=O)N[C@H](C(=O)C1CC1)C(C)C)C(C)(C)C)C2(C)C` (stereo partly drawn) [compound 4167], the inhibition constant Ki was under 75 nM. To `C=CCNC(=O)C(=O)C(CCC)NC(=O)[C@@H]1[C@@H]2[C@H](CN1C(=O)[C@@H](NC(=O)N[C@H](C(=O)C1CC1)C1CCCCC1)C1(C)CCCCC1)C2(C)C` (stereo partly drawn) [compound 4169] belongs under 75 nM; to `C=CCNC(=O)C(=O)C(CCC)NC(=O)[C@@H]1[C@@H]2[C@H](CN1C(=O)[C@@H](NC(=O)N[C@H](C(=O)c1ccncc1)C(C)C)C(C)(C)C)C2(C)C` (stereo partly drawn) [compound 4170], under 75 nM. Turning to `C=CCNC(=O)C(=O)C(CCC(F)(F)F)NC(=O)[C@@H]1[C@@H]2[C@H](CN1C(=O)[C@@H](NC(=O)N[C@H](C(=O)c1nccs1)C(C)C)C(C)(C)C)C2(C)C` (stereo partly drawn) [compound 4171], the Ki was under 75 nM. The result for `CNC(=O)C(=O)C(CC1CC1)NC(=O)[C@@H]1[C@@H]2[C@H](CN1C(=O)[C@@H](NC(=O)N[C@H](C(=O)c1ccccn1)C(C)C)C(C)(C)C)C2(C)C` (stereo partly drawn) [compound 4172] reads under 75 nM; that for `CNC(=O)C(=O)C(CC1CC1)NC(=O)[C@@H]1[C@@H]2[C@H](CN1C(=O)[C@@H](NC(=O)N[C@H](C(=O)C1CC1)C1CCCCC1)C(C)(C)C)C2(C)C` (stereo partly drawn) [compound 4173], 76 to 250 nM; that for `CC(C)[C@H](NC(=O)N[C@H](C(=O)N1CC2OC(C)(C)CC2[C@H]1C(=O)NC(CC1CC1)C(=O)C(N)=O)C1CCCCC1)C(=O)c1nccs1` (stereo partly drawn) [compound 4174], 76 to 250 nM. The result for `C=CCNC(=O)C(=O)C(CCC)NC(=O)[C@@H]1[C@@H]2[C@H](CN1C(=O)[C@@H](NC(=O)N[C@H](CC(=O)c1ccccn1)C(C)C)C(C)(C)C)C2(C)C` (stereo partly drawn) [compound 4175] reads 76 to 250 nM; that for `C#CCCC(NC(=O)[C@@H]1[C@@H]2[C@H](CN1C(=O)[C@@H](NC(=O)NC(C(=O)c1ccccc1)C(C)C)C(C)(C)C)C2(C)C)C(=O)C(=O)NCC#C` (stereo partly drawn) [compound 4176], 76 to 250 nM. `C=CCNC(=O)C(=O)C(CCC)NC(=O)[C@@H]1[C@@H]2[C@H](CN1C(=O)[C@@H](NC(=O)N[C@H](C(=O)c1ccc(C(F)(F)F)cc1)C(C)C)C(C)(C)C)C2(C)C` (stereo partly drawn) [compound 4177]: the Ki was in the range of 76 to 250 nM. To `CC(C)(C)[C@H](NC(=O)NC1(C(=O)Cc2ccccc2)CCCCC1)C(=O)N1C[C@H]2[C@@H]([C@H]1C(=O)NC(CC1CC1)C(=O)C(N)=O)C2(C)C` (stereo partly drawn) [compound 4178] belongs 76 to 250 nM; to `CC(C)[C@H](OC(=O)N[C@H](C(=O)N1C[C@H]2[C@@H]([C@H]1C(=O)NC(CC1CC1)C(=O)C(N)=O)C2(C)C)C(C)(C)C)C(=O)c1ccccc1` (stereo partly drawn) [compound 4179], 76 to 250 nM. For `CC(C)(C)[C@H](NC(=O)NC1(C(=O)c2ccccc2)CCCC1)C(=O)N1C[C@H]2[C@@H]([C@H]1C(=O)NC(CC1CC1)C(=O)C(N)=O)C2(C)C` (stereo partly drawn) [compound 4182], the Ki was in the range of 76 to 250 nM. As to `CC(C)(C)[C@H](NC(=O)NC1(C(=O)c2ccccc2)CCCCC1)C(=O)N1C[C@H]2[C@@H]([C@H]1C(=O)NC(CC1CC1)C(=O)C(N)=O)C2(C)C` (stereo partly drawn) [compound 4183], the Ki fell in the range of 76 to 250 nM.

For the compound `CC(C)[C@@H](NC(=O)N[C@H](C(=O)N1C[C@H]2[C@@H]([C@H]1C(=O)NC(CC1CC1)C(=O)C(N)=O)C2(C)C)C(C)(C)C)C(=O)c1ccccc1` (stereo partly drawn) [compound 4184], the Ki was 76 to 250 nM. Regarding `CC(C)[C@H](NC(=O)N[C@H](C(=O)N1CC2OC(C)(C)CC2[C@H]1C(=O)NC(CC1CCC1)C(=O)C(N)=O)C1CCCCC1)C(=O)c1nccs1` (stereo partly drawn) [compound 4185], the Ki was in the range of 76 to 250 nM. In the case of `CCCNC(=O)C(=O)C(CCC)NC(=O)[C@@H]1[C@@H]2[C@H](CN1C(=O)[C@@H](NC(=O)N[C@H](C(=O)C1CC1)C(C)C)C(C)(C)C)C2(C)C` (stereo partly drawn) [compound 4186], the Ki fell in the range of 76 to 250 nM.

As to `CCCC(NC(=O)[C@@H]1[C@@H]2[C@H](CN1C(=O)[C@@H](NC(=O)N[C@H](C(=O)C1CC1)C(C)C)C(C)(C)C)C2(C)C)C(=O)C(=O)NC` (stereo partly drawn) [compound 4187], the inhibitory constant (Ki) lay within 76 to 250 nM. For the compound `CCCC(NC(=O)[C@@H]1[C@@H]2[C@H](CN1C(=O)[C@@H](NC(=O)N[C@H](C(=O)C(C)C)C(C)C)C(C)(C)C)C2(C)C)C(=O)C(=O)NC` (stereo partly drawn) [compound 4188], the inhibitory constant (Ki) fell in the range of 76 to 250 nM. As to `C=CCNC(=O)C(=O)C(CCCC)NC(=O)[C@@H]1[C@@H]2[C@H](CN1C(=O)[C@@H](NC(=O)N[C@H](C(=O)c1ccco1)C(C)C)C(C)(C)C)C2(C)C` (stereo partly drawn) [compound 4189], the Ki fell in the range of 76 to 250 nM.

Turning to `CC(C)(C)[C@H](NC(=O)NC1(C(=O)c2ccccn2)CCCCC1)C(=O)N1C[C@H]2[C@@H]([C@H]1C(=O)NC(CC1CC1)C(=O)C(N)=O)C2(C)C` (stereo partly drawn) [compound 4190], the Ki fell in the range of 76 to 250 nM.

As to `C=CCNC(=O)C(=O)C(CCC)NC(=O)[C@@H]1[C@@H]2[C@H](CN1C(=O)[C@@H](NC(=O)N[C@H](C(=O)c1nccs1)C(C)(C)C)C(C)(C)C)C2(C)C` (stereo partly drawn) [compound 4191], the Ki was 76 to 250 nM. In the case of `CCCC(NC(=O)[C@@H]1[C@@H]2[C@H](CN1C(=O)[C@@H](NC(=O)N[C@H](C(=O)C1CC1)C(C)C)C(C)(C)C)C2(C)C)C(=O)C(=O)NCC` (stereo partly drawn) [compound 4192], the Ki was 76 to 250 nM.

On to `C=CCNC(=O)C(=O)C(CCC)NC(=O)[C@@H]1[C@H]2CC(C)(C)O[C@H]2CN1C(=O)[C@@H](NC(=O)N[C@H](C(=O)C1CC1)C(C)C)C(C)(C)C` (stereo partly drawn) [compound 4193], for which the Ki was 76 to 250 nM. In the case of `C=C(F)CNC(=O)C(=O)C(CCC)NC(=O)[C@@H]1[C@@H]2[C@H](CN1C(=O)[C@@H](NC(=O)N[C@H](C(=O)C(C)C)C(C)C)C(C)(C)C)C2(C)C` (stereo partly drawn) [compound 4194], the Ki was in the range of 76 to 250 nM. With `CCNC(=O)C(=O)C(CC1CC1)NC(=O)[C@@H]1[C@@H]2[C@H](CN1C(=O)[C@@H](NC(=O)N[C@H](C(=O)C1CC1)C1CCCCC1)C(C)(C)C)C2(C)C` (stereo partly drawn) [compound 4195], the Ki fell in the range of 76 to 250 nM. `CCNC(=O)C(=O)C(CC1CC1)NC(=O)[C@@H]1[C@@H]2[C@H](CN1C(=O)[C@@H](NC(=O)N[C@H](C(=O)C(C)C)C(C)C)C(C)(C)C)C2(C)C` (stereo partly drawn) [compound 4196]: the Ki fell in the range of 76 to 250 nM.

On to `C=CCNC(=O)C(=O)C(CCC)NC(=O)[C@@H]1[C@H]2CC(C)(C)O[C@H]2CN1C(=O)[C@@H](NC(=O)N[C@H](C(=O)C1CC1)C(C)C)C1CCCCC1` (stereo partly drawn) [compound 4197], for which the Ki lay within 76 to 250 nM. Regarding `CCCC(NC(=O)[C@@H]1[C@@H]2[C@H](CN1C(=O)[C@@H](NC(=O)N[C@H](C(=O)C(C)C)C(C)C)C(C)(C)C)C2(C)C)C(=O)C(=O)NCC(F)(F)F` (stereo partly drawn) [compound 4198], the Ki was in the range of 76 to 250 nM. The result for `C=C(F)CNC(=O)C(=O)C(CCC)NC(=O)[C@@H]1[C@@H]2[C@H](CN1C(=O)[C@@H](NC(=O)N[C@H](C(=O)c1ccccn1)C(C)C)C(C)(C)C)C2(C)C` (stereo partly drawn) [compound 4199] reads 76 to 250 nM; that for `CCCC(NC(=O)[C@@H]1[C@@H]2[C@H](CN1C(=O)[C@@H](NC(=O)N[C@H](C(=O)C1CC1)C1CCCCC1)C(C)(C)C)C2(C)C)C(=O)C(=O)NCCC(F)(F)F` (stereo partly drawn) [compound 4200], 76 to 250 nM. In the case of `C#CCCCC(NC(=O)[C@@H]1[C@@H]2[C@H](CN1C(=O)[C@@H](NC(=O)N[C@H](C(=O)c1ccccc1)C(C)C)C(C)(C)C)C2(C)C)C(=O)C(=O)NCC=C` (stereo partly drawn) [compound 4201], the Ki lay within 76 to 250 nM.

Consider `CCCC(NC(=O)[C@@H]1[C@@H]2[C@H](CN1C(=O)[C@@H](NC(=O)N[C@H](C(=O)C(C)C)C(C)C)C(C)(C)C)C2(C)C)C(=O)C(=O)NCCC(F)(F)F` (stereo partly drawn) [compound 4203], for which the Ki is over 250 nM. To `CCCC(NC(=O)[C@@H]1[C@@H]2[C@H](CN1C(=O)[C@@H](NC(=O)N[C@H](C(=O)C1CC1)C(C)C)C(C)(C)C)C2(C)C)C(=O)C(=O)NCCOC` (stereo partly drawn) [compound 4204] belongs over 250 nM.
